Data as given in the supplement of paper PMC12217912.
The other results are listed elsewhere or left out. Sequences were assembled here from the parent chain. Inactive controls read about 0.05.

B1: TEV protease; numbered along this chain (parent)
chain: MGESLFKGPRDYNPISSSICHLTNESDGHTTSLYGIGFGPFIITNKHLFRRNNGTLVVQSLHGVFKVKDTTTLQQHLVDGRDMIIIRMPKDFPPFPQKLKFREPQREERICLVTTNFQTKSMSSMVSDTSCTFPSGDGIFWKHWIQTKDGQCGSPLVSTRDGFIVGIHSASNFTNTNNYFTSVPKNFMELLTNQEAQQWVSGWRLNADSVLWGGHKVFMVKPEEPFQPVKEATQL

Variants of: B1
Experiment: raw area under fraction-flipped curve 0-4 h after induction (AUC4h, not background-subtracted), DNA-recorder readout of cleavage of the substrate (dimensionless); higher = more cleavage of the substrate by the protease variant
Conditions: temperature: 34 °C; time window: 0-4 h after rhamnose induction
Procedure: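 In vivo DNA recorder in E. coli TOP10(DE3) ΔrhaA at 34 °C. Each TEVp single-site mutant (parent TEVp 0) is paired with a single-site variant of the 7-mer TEVs (canonical ENLYFQ|S). The substrate sits between flexible linkers in a Bxb1-sfGFP-TEVs-SsrA fusion, so cleavage stabilises Bxb1 and speeds flipping of a recombination array, read by NGS. The value is the raw area under the fraction-flipped curve over 0-4 h after rhamnose induction (AUC4h), with ≥20 reads per time point. It is not background-subtracted; inactive controls average about 0.047.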
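Also: Bxb1 expression induced with 0.2% (w/v) L-rhamnose at OD600 near 0.5, cultures sampled hourly, flipped fraction per protease–substrate barcode pair counted by paired-end Illumina sequencing.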

| Variant | area with substrate ENLYFQA | area with substrate ENLYFQC | area with substrate ENLYFQD | area with substrate ENLYFQH | area with substrate ENLYFQK | area with substrate ENLYFQL | area with substrate ENLYFQM | area with substrate ENLYFQN | area with substrate ENLYFQP | area with substrate ENLYFQR | area with substrate ENLYFQS | area with substrate ENLYFQT | area with substrate ENLYFQV | area with substrate ENLYFQW | area with substrate ENLYFQF | area with substrate ENLYFQG | area with substrate ENLYFQI | area with substrate ENLYFQQ | area with substrate ENLYFQY | area with substrate ENLYFQE |
| --- | --- | --- | --- | --- | --- | --- | --- | --- | --- | --- | --- | --- | --- | --- | --- | --- | --- | --- | --- | --- |
| F133K | 0.104 | 0.129 | 0.0716 | 0.0604 | 0.0565 | 0.0747 | 0.111 | 0.0831 | 0.0708 | 0.0627 | 0.109 | 0.0798 | 0.063 | 0.0663 |  |  |  |  |  |  |
| K142L | 0.115 | 0.127 | 0.0908 | 0.0625 | 0.0772 | 0.0643 | 0.104 | 0.0933 |  | 0.0602 | 0.115 | 0.0789 | 0.0586 | 0.0794 | 0.0853 | 0.0919 | 0.0778 | 0.0783 | 0.0998 |  |
| K142I | 0.0684 | 0.0875 |  | 0.0799 | 0.0677 | 0.0741 | 0.0769 | 0.0819 |  | 0.053 | 0.0902 | 0.0349 | 0.083 | 0.0515 | 0.102 | 0.0785 | 0.0639 | 0.091 | 0.0836 | 0.0799 |
| C111S | 0.126 | 0.117 | 0.0547 | 0.0535 | 0.0925 | 0.0611 | 0.0975 | 0.0771 | 0.0509 | 0.0614 | 0.11 | 0.0532 | 0.0719 | 0.0458 | 0.0631 | 0.102 | 0.0633 | 0.0654 | 0.0835 |  |
| C111M | 0.102 | 0.109 | 0.0733 |  | 0.0678 | 0.0598 | 0.0655 | 0.0715 | 0.0575 | 0.0788 | 0.0911 | 0.0624 |  |  | 0.0707 | 0.103 | 0.0489 |  |  |  |
| T132I | 0.0936 |  |  | 0.0719 |  | 0.0641 |  | 0.078 | 0.04 | 0.0691 | 0.101 | 0.0699 | 0.0719 | 0.0707 |  | 0.0936 | 0.051 | 0.0612 |  | 0.057 |
| S123D | 0.0788 | 0.116 |  | 0.0733 | 0.0652 | 0.0593 |  | 0.0766 | 0.0611 | 0.0504 | 0.0976 | 0.0706 | 0.0517 | 0.0694 |  | 0.0858 | 0.059 | 0.0035 | 0.0815 |  |
| I86V | 0.0967 | 0.111 | 0.0894 |  | 0.0851 | 0.0677 | 0.0898 | 0.082 | 0.0874 | 0.064 | 0.106 | 0.073 | 0.0639 | 0.0572 |  |  | 0.0493 |  |  |  |
| K98L | 0.0771 |  | 0.0572 |  |  | 0.0686 | 0.0646 |  | 0.0455 | 0.0628 | 0.0988 | 0.0656 | 0.0549 |  |  |  | 0.0464 | 0.0582 | 0.0683 |  |
| P134D | 0.0755 | 0.084 | 0.0618 | 0.0587 | 0.0573 | 0.0542 | 0.0633 | 0.0783 | 0.0634 | 0.0606 | 0.0836 | 0.0594 | 0.0585 | 0.0564 | 0.0544 | 0.0821 | 0.0564 | 0.0561 | 0.0512 |  |
| N116S | 0.0993 | 0.113 | 0.0821 | 0.0731 | 0.0708 | 0.0613 | 0.0925 | 0.0669 | 0.0767 | 0.0693 | 0.111 | 0.0681 | 0.0617 |  | 0.0652 | 0.0899 |  |  | 0.0705 |  |
